From ChEMBL document CHEMBL4888484, “Replenishing the malaria drug discovery pipeline: Screening and hit evaluation of the MMV Hit Generation Library 1 (HGL1) against asexual blood stage Plasmodium falciparum ,using a nano luciferase reporter read-out” (2022)
Out of some 150,000 compounds screened, about 540 (0.36%) showed an effect of 50% or more. Some of the results follow.

These compounds were tested on Plasmodium falciparum (assay: Primary screen in NF54 nanoGlo assay, in single point, at 2uM, 72h; a lower Z score goes with more inhibition). Settings: timepoint 72 hour.
Format: functional, Erythrocyte
For `O=C(NCCCNCc1cnc(C2CCC2)s1)c1cccc(O)c1`, the “% Inhibition” value was 3% and the Z score was -0.42. For `COc1ccc2oc(CN[C@@H](C)CCn3cccn3)nc2c1`, the “% Inhibition” value was -6% and the Z score was 1.11. `CCCNC(=O)CN(C)Cc1nnnn1CCC` was tested, and the “% Inhibition” value was 3% and the Z score was -0.42. For `Cc1nn(C(C)(C)C)cc1C(=O)N[C@H]1CCCNC1=O`, the “% Inhibition” value was -6% and the Z score was 0.69. With `CC(C)CC(C)NC(=O)N1CCCC(C2(C)OCCO2)C1` (configuration not stated) the “% Inhibition” value was -2% and the Z score was 0.28. For `O=C(CN1CC[C@@H](C(=O)O)c2cc(Br)ccc21)Nc1ccon1`, the “% Inhibition” value was -1% and the Z score was 0.11. For `Cc1oc(-c2cccc(Cl)c2)nc1CN1CCN(S(=O)(=O)c2cccs2)CC1`, the “% Inhibition” value was -6% and the Z score was 1.09. `CCN(C[C@H](C)C#N)C(=O)C1CCOCC1` was tested, and the “% Inhibition” value was -13% and the Z score was 1.86. `Cc1n[nH]nc1C(=O)N[C@@H](C)c1c(C)n[nH]c1C` was tested, and the “% Inhibition” value was 12% and the Z score was -1.1. For `CN1CCC2(CCCN(C(=O)c3n[nH]c4ccccc34)CC2)CC1`, the “% Inhibition” value was -4% and the Z score was 0.74. In the case of `COCCn1ccnc1CN1CCc2nc(C)[nH]c2C1`, the “% Inhibition” value was 2% and the Z score was -0.31. For `O=C(N1CC[C@H](Oc2ccncc2Cl)C1)C1(c2ccccc2)CCOCC1`, the “% Inhibition” value was 4% and the Z score was -0.83. `Cn1c(Oc2ccc(Cl)c(Cl)c2)cc(=O)n(C)c1=O` was tested, and the “% Inhibition” value was -5% and the Z score was 0.69. With `O=C(CN1CCCC1=O)N1CCC(c2nnc(-c3ccc(F)cc3)o2)CC1` the “% Inhibition” value was -23% and the Z score was 2.55. In the case of `CC[C@H]1OCC[C@@H]1C(=O)Nc1nc(-c2ccccc2Cl)nn1C`, the “% Inhibition” value was -7% and the Z score was 1.23. For `C[C@]1(NC(=O)c2c(O)cc(Cl)cc2Cl)CCOC1`, the “% Inhibition” value was -7% and the Z score was 0.88. In the case of `Cc1ccc(CN2CC[C@H](CNC(=O)C3CCC3)C2)c(C)c1F`, the “% Inhibition” value was -8% and the Z score was 1.4. In the case of `C[C@H](NC(=O)NCC1(c2ccccc2Cl)CCC1)c1nnnn1C`, the “% Inhibition” value was -6% and the Z score was 0.66. With `O=C(CCc1ccncc1)N1CC[C@@H]2OCc3cnnn3[C@@H]2C1` the “% Inhibition” value was -3% and the Z score was 0.49. For `O=C(Cn1c2ccccc2c(=O)c2cc(Cl)ccc21)Nc1ccc(Oc2ccccc2)cc1`, the “% Inhibition” value was 10% and the Z score was -1.18. For `CC(C)c1noc(NC(=O)c2cc3ccccc3o2)n1`, the “% Inhibition” value was -10% and the Z score was 1.52. With `CC(C)(C)c1ncc(C(=O)NCc2ccncc2)c(O)n1` the “% Inhibition” value was -10% and the Z score was 1.98. With `CCc1csc(N2CC[C@@H](Oc3ccccc3)C2)n1` the “% Inhibition” value was -17% and the Z score was 2.17. `O=C(c1cncc(Br)c1)N1Cc2cccnc2C1` was tested, and the “% Inhibition” value was -10% and the Z score was 1.12. For `O=C(NC1CCCCC1)n1oc(=O)cc1-c1ccccc1`, the “% Inhibition” value was -10% and the Z score was 1.47. For `O=C(Nc1ccc(-c2nnc3n2CCCC3)cc1)c1cccnc1O`, the “% Inhibition” value was 23% and the Z score was -2.14. In the case of `COc1ccc2[nH]nc(NC(=O)CCCn3nc(C)nc3C)c2c1`, the “% Inhibition” value was -10% and the Z score was 1.89. For `CN(CC1(O)CCCCCC1)C(=O)NCCc1cccc(C#N)c1`, the “% Inhibition” value was 2% and the Z score was -0.3. For `O=S(=O)(CCCOc1ccc2c(c1)OCO2)N1CCCC1`, the “% Inhibition” value was -11% and the Z score was 1.23. With `Cc1csc(NC(=O)C2CCCC(C(=O)Nc3nc(C)cs3)C2)n1` (configuration not stated) the “% Inhibition” value was 2% and the Z score was -0.25. With `C[C@H]1CNCCN1C(=O)CCc1ccc(Cl)s1` the “% Inhibition” value was -10% and the Z score was 0.96. In the case of `COc1ccc(OC)c(NC(=O)c2nnn(CC(=O)NCc3ccccc3Cl)c2C)c1`, the “% Inhibition” value was 4% and the Z score was -0.56. With `Cc1ccnc(NC2CCCC3OCCC23)n1` (configuration not stated) the “% Inhibition” value was -11% and the Z score was 1.1. With `CC/C=C\CCCN1CCC[C@](C)(C(=O)NC)C1` the “% Inhibition” value was 5% and the Z score was -0.96. For `COc1cccc(Cn2c(C)c(C3CCN(S(=O)(=O)c4ccccc4C(F)(F)F)CC3)c3ccccc32)c1`, the “% Inhibition” value was -10% and the Z score was 1.35. For `Cc1nn(C)c(C)c1C(=O)N[C@H](c1cccnc1)C1CCOCC1`, the “% Inhibition” value was -9% and the Z score was 1.7. In the case of `CCCc1nnc(NC(=O)c2ccccc2OCc2cn3cccc(C)c3n2)s1`, the “% Inhibition” value was -4% and the Z score was 0.36. In the case of `N#Cc1cccc(CN2CCCC[C@H]2c2nnc(C3CCC3)o2)c1F`, the “% Inhibition” value was -11% and the Z score was 1.81. For `O=C(O)Cc1ccc(NC(=O)C2CC23CCc2ccccc23)cc1F` (configuration not stated), the “% Inhibition” value was -3% and the Z score was 0.53. For `CCN(C(=O)CS(=O)(=O)[C@H]1CCCOC1)C1CC1`, the “% Inhibition” value was -13% and the Z score was 1.33. `O=C(Nc1nc2ccccc2[nH]1)c1ccsc1` was tested, and the “% Inhibition” value was -8% and the Z score was 1.62. For `COc1ccc(NC(=O)N2CCC(Oc3cccc4cccnc34)CC2)c(OC)c1`, the “% Inhibition” value was -2% and the Z score was 0.39. `CCCCN1C(=O)CCC(C(=O)N2CCNCC2)C1c1ccccc1OC` (configuration not stated) was tested, and the “% Inhibition” value was 10% and the Z score was -1.27. `COc1cccc([C@H]2NCCc3[nH]cnc32)c1OCc1ccccc1F` was tested, and the “% Inhibition” value was -10% and the Z score was 1.98. `O=C(CN1CCNC(=O)C1)NCCC1=CCCCC1` was tested, and the “% Inhibition” value was -9% and the Z score was 1.75. `Cc1cc(NS(=O)(=O)c2ccc(C(F)F)cc2)cnc1N1CCCCC1` was tested, and the “% Inhibition” value was 1% and the Z score was -0.11. With `Cc1cc(C)c(C(=O)N[C@@H]2CCNC(=O)CC2)o1` the “% Inhibition” value was -4% and the Z score was 0.62. In the case of `CCS(=O)(=O)NCCNC(=O)N(C)Cc1ccc(OC)c(C)c1`, the “% Inhibition” value was 4% and the Z score was -0.64. For `CNC[C@H]1CCN(C(=O)C2(c3ccccc3C)CCCCC2)C1`, the “% Inhibition” value was -10% and the Z score was 1.76. `CCc1nc(CN(C)C(=O)N[C@H]2CCCN(C(=O)c3cccs3)C2)no1` was tested, and the “% Inhibition” value was -25% and the Z score was 2.21. `CCN1CCN(C(=O)c2ccc(C(F)(F)F)cc2)[C@H]2CS(=O)(=O)C[C@H]21` was tested, and the “% Inhibition” value was -15% and the Z score was 1.64. With `CCc1ccc(-c2cc3n(n2)C[C@@](C)(C(=O)NC2CCCCC2)N(c2cc(C)cc(C)c2)C3=O)cc1` the “% Inhibition” value was 71% and the Z score was -11.34. `O=C(Cc1csc(NC(=O)c2ccsc2)n1)Nc1cccnc1` was tested, and the “% Inhibition” value was -18% and the Z score was 2.09. In the case of `CCc1noc(C)c1Cn1nc(CO)c(=O)cc1C`, the “% Inhibition” value was 1% and the Z score was -0.2. For `O=C(Cc1ccc(NCc2cccc(C(F)(F)F)c2)cc1)N1CCc2ccccc2C1`, the “% Inhibition” value was 4% and the Z score was -0.52. `O=S(=O)(C1COC1)N1CCOCC2(CC2)C1` was tested, and the “% Inhibition” value was -2% and the Z score was 0.38. For `CN(Cc1ccccc1N1CCOCC1)c1ncnc(N)c1Cl`, the “% Inhibition” value was 9% and the Z score was -0.82. For `Cc1nc2c(c(N3CCC(NC(=O)c4c(F)cccc4F)CC3)n1)CCCC2`, the “% Inhibition” value was -11% and the Z score was 1.43. `CCS(=O)(=O)N1C[C@@H]2CN(C(=O)c3cc(C)nn3C)C[C@]2(c2nc(C)no2)C1` was tested, and the “% Inhibition” value was -10% and the Z score was 1.36. `COc1ccc(N2CCN(C(=O)Cn3nc(-c4ccccc4)ccc3=O)CC2)cc1` was tested, and the “% Inhibition” value was -6% and the Z score was 0.91. For `CC(C)CCN(C1CCOCC1)C1CCN(C(=O)c2ccc(F)cc2)CC1`, the “% Inhibition” value was -4% and the Z score was 0.49. In the case of `O=c1c(NCc2ccccc2Cl)nccn1-c1ccc2c(c1)OCCO2`, the “% Inhibition” value was -5% and the Z score was 0.59. `CC(C)n1ncc2cc(CN[C@@H](C)c3ncon3)cnc21` was tested, and the “% Inhibition” value was -1% and the Z score was 0.11. With `O=C(CC[C@H]1NC(=O)c2ccccc2NC1=O)NCCc1nnc2ccccn12` the “% Inhibition” value was -5% and the Z score was 1.03. In the case of `CC(C)(COC(=O)c1ccccc1F)NC1=NS(=O)(=O)c2ccccc21`, the “% Inhibition” value was -7% and the Z score was 0.92. With `Cc1cc(C)nc(NCCCOC2CCOCC2)n1` the “% Inhibition” value was -3% and the Z score was 0.33. `Cc1nc(CNC(=O)Nc2cn(C)nn2)cs1` was tested, and the “% Inhibition” value was -1% and the Z score was 0.12. For `CN(CC(=O)N1CCc2ccccc2C1)c1nc2c(Cl)cccc2s1`, the “% Inhibition” value was 12% and the Z score was -1.91. `CC(C(=O)O)N(CCOc1ccccc1)CC1CC2CC2C1` (configuration not stated) was tested, and the “% Inhibition” value was 1% and the Z score was -0.19. For `Cc1ccc(NC(=O)Nc2cccc(CCc3nc4ccccc4n3C)c2)cc1C`, the “% Inhibition” value was -5% and the Z score was 0.75. `COC1CC(NC(=O)C2CCCOC2)C12CCC2` (configuration not stated) was tested, and the “% Inhibition” value was -9% and the Z score was 0.86. In the case of `CC(C)c1cc(N2CCN(C(=O)c3ccc(=O)[nH]c3)CC2)nc(C(C)C)n1`, the “% Inhibition” value was -10% and the Z score was 1.47. For `O=C(Cc1c[nH]c2ccccc12)NC1CCCCCCC1`, the “% Inhibition” value was 4% and the Z score was -0.57. For `CS(=O)(=O)NC[C@H]1CCCN(c2ncnc(N)c2Cl)C1`, the “% Inhibition” value was 34% and the Z score was -3.79. For `CC(c1noc(C2COCCO2)n1)C1CC1` (configuration not stated), the “% Inhibition” value was -5% and the Z score was 0.89. For `COc1ccc([C@H]2CN(C(=O)CCc3c[nH]c4ccccc34)C[C@@H]2N)cc1`, the “% Inhibition” value was 5% and the Z score was -0.75. In the case of `O=C1C[C@H](NC(=O)Nc2ccccc2Cl)CN1`, the “% Inhibition” value was 7% and the Z score was -0.99. For `CC1CCC(NC(=O)Cn2ncn3c(cc4cc(F)ccc43)c2=O)CC1` (configuration not stated), the “% Inhibition” value was 4% and the Z score was -0.48. With `O=C(Cn1ncc2c([nH]c3ccccc32)c1=O)N1CCN(Cc2ccc3c(c2)OCO3)CC1` the “% Inhibition” value was 1% and the Z score was -0.17. `Cc1cc(=O)c(C(=O)NC2CCCCC2Oc2ccccc2)c[nH]1` (configuration not stated) was tested, and the “% Inhibition” value was -5% and the Z score was 0.72. With `CC(C)CCN1C(=O)CC[C@@H]2CN(C(=O)N3CCN(C)CC3)CC[C@@H]21` the “% Inhibition” value was -18% and the Z score was 2.51. In the case of `Cc1cc(C(F)(F)F)n(C[C@@H](C)CNc2ncnc3c2c(C)nn3C)n1`, the “% Inhibition” value was -1% and the Z score was 0.19. `Nc1ccnc(N2CC(c3cccnc3)C2)n1` was tested, and the “% Inhibition” value was -12% and the Z score was 1.78. With `Cc1ccc(OCCN(C)CC2(C)COC2)c(C)c1` the “% Inhibition” value was -1% and the Z score was 0.2. In the case of `CC[C@H](C)N(Cc1c(-c2ccccc2)nn(C)c1N(C)C)C(=O)c1cccc(F)c1`, the “% Inhibition” value was 3% and the Z score was -0.36. `CC(C)c1cc(C(=O)NC(c2ccccc2)[C@H]2C[C@@H](O)C2)on1` (some centres not stated) was tested, and the “% Inhibition” value was 6% and the Z score was -0.95.
